Measurements from the supplement of paper PMC7125110.
± gives the standard error. Variants at the background level are over-represented here.

B1: glmS ribozyme (parent)
chain: AUAAAAGCGCCAGAACUACAGAAAUGUAGUUGACGAGGAGGAGGUUUAUCGAAUUUUCGGCGGAUGCCUCCAAA

Assays:
Settings in all cases: with glucosamine-6-phosphate
[1] = variants of: B1; assay: self-cleavage kobs at 40 uM GlcN6P; higher = faster cleavage; RNA array
Summary of the method: (§1)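 On sequenced MiSeq chips, barcoded ribozyme variants were made in situ by E. coli RNA polymerase and followed at 37 °C through a hybridised Cy3 probe. Glucosamine-6-phosphate was flowed in at 40 μM to 10 mM in HEPES/KCl/Mg(OAc)2 buffer. Exponential fits to normalised per-tile medians gave kobs, and weighted Michaelis–Menten fits gave kcat and KM.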

[2] = variants of: B1; assay: self-cleavage kobs at 160 uM GlcN6P; higher = faster cleavage; RNA array
Summary of the method: as §1

[3] = variants of: B1; assay: self-cleavage kobs at 640 uM GlcN6P; higher = faster cleavage; RNA array
Summary of the method: as §1

[4] = variants of: B1; assay: self-cleavage kobs at 2500 uM GlcN6P; higher = faster cleavage; RNA array
Summary of the method: as §1

[5] = variants of: B1; assay: self-cleavage kobs at 10000 uM GlcN6P; higher = faster cleavage; RNA array
Summary of the method: as §1

Variant | self-cleavage kobs at 40 uM GlcN6P [1] [s⁻¹] | self-cleavage kobs at 160 uM GlcN6P [2] [s⁻¹] | self-cleavage kobs at 640 uM GlcN6P [3] [s⁻¹] | self-cleavage kobs at 2500 uM GlcN6P [4] [s⁻¹] | self-cleavage kobs at 10000 uM GlcN6P [5] [s⁻¹]
G29A A42U | < 1e-05 | < 1e-05 |  |  | 
U30C G59C | < 1e-05 |  | < 1e-05 | < 1e-05 | < 1e-05
G29U U54C | 0.000157 ± 3.1e-05 | 0.000421 ± 6.8e-05 | 0.00146 ± 0.00023 | 0.00249 ± 0.00049 | 0.00596 ± 0.0013
C16G U49A | < 1e-05 |  | < 1e-05 | < 1e-05 | 
G35U G41U U45G | < 1e-05 | < 1e-05 | < 1e-05 | < 1e-05 | < 1e-05
A15U G37C C70G | < 1e-05 |  |  |  | 
C16U G41U A53U | 3.27e-05 ± 1.6e-05 |  |  |  | 
A36C A53C | < 1e-05 | < 1e-05 | < 1e-05 | < 1e-05 | < 1e-05
A15C A36C | < 1e-05 |  |  |  | 
A36U G44C | < 1e-05 | < 1e-05 |  | < 1e-05 | < 1e-05
G35A A64C | < 1e-05 | < 1e-05 | < 1e-05 | < 1e-05 | < 1e-05
A33C U46C C58G | < 1e-05 |  |  |  | 
C34U A64U C67A | < 1e-05 |  |  |  | < 1e-05
G35C A39G C70U | < 1e-05 |  |  |  | < 1e-05
A15C C16G | 5.89e-05 ± 1.4e-05 |  | 0.000438 ± 5.6e-05 |  | 0.00295 ± 0.00045
A15C U69C | 0.000108 ± 2.5e-05 |  | 0.000226 ± 8.5e-05 | 0.000165 ± 4.4e-05 | 0.00087 ± 0.00022
A36G C50U | < 1e-05 | < 1e-05 | < 1e-05 | < 1e-05 | < 1e-05
A36G C50G | 3.66e-05 ± 1.5e-05 |  |  |  | 
C16A A48U C50U | < 1e-05 |  |  | < 1e-05 | < 1e-05
U30C G38U G43C U46G | < 1e-05 |  |  |  | 
C16U G35U | < 1e-05 | < 1e-05 | < 1e-05 |  | < 1e-05
A15C A48G | < 1e-05 | < 1e-05 |  |  | 
A15C A36C G38U | < 1e-05 |  |  |  | 
G32U C34G | < 1e-05 |  |  |  | 
G35C G37A | < 1e-05 |  |  | < 1e-05 | 

Variant | self-cleavage kobs at 40 uM GlcN6P [1] [s⁻¹] | self-cleavage kobs at 160 uM GlcN6P [2] [s⁻¹] | self-cleavage kobs at 640 uM GlcN6P [3] [s⁻¹] | self-cleavage kobs at 2500 uM GlcN6P [4] [s⁻¹] | self-cleavage kobs at 10000 uM GlcN6P [5] [s⁻¹]
G29U A53G | 0.000165 ± 2.5e-05 | 0.000262 ± 5.4e-05 | 0.000805 ± 0.00012 | 0.0021 ± 0.00029 | 0.00417 ± 0.00059
C16U G40U U56A C71G | 3.89e-05 ± 1.1e-05 |  |  |  | 0.00169 ± 0.00032
G29C G59C | < 1e-05 |  | < 1e-05 |  | < 1e-05
G32U G37U G60C | < 1e-05 |  |  |  | 
G32C G40A | < 1e-05 | < 1e-05 |  |  | 1.99e-05 ± 7.3e-06
A33G A39G | < 1e-05 | < 1e-05 | < 1e-05 |  | < 1e-05
A15C U46A C58U | < 1e-05 |  |  |  | 
C16U G32C U54C | < 1e-05 | < 1e-05 |  |  | 
G32C G40A C50U C68A | < 1e-05 |  |  |  | 
A36G G44C | < 1e-05 |  |  |  | < 1e-05
A33G U45G U54G C61U | < 1e-05 |  |  |  | < 1e-05
A15G A33C U46G | < 1e-05 |  |  |  | 
A33G U47A | < 1e-05 |  |  |  | 
A33G C67U | < 1e-05 |  |  |  | < 1e-05
G29A A33U C58U | < 1e-05 |  | < 1e-05 |  | 
C34A G63C | < 1e-05 | < 1e-05 | < 1e-05 | < 1e-05 | < 1e-05
G35A G51C C58U | < 1e-05 |  |  |  | < 1e-05
C34G G51U | < 1e-05 | < 1e-05 |  |  | < 1e-05
G35U U45A U57C C67A C68A | < 1e-05 |  |  |  | 
A33C G38C G44U | < 1e-05 |  |  | < 1e-05 | < 1e-05
G32U C61U C67A | < 1e-05 |  | < 1e-05 |  | < 1e-05
C16G G37U | < 1e-05 | < 1e-05 | < 1e-05 | < 1e-05 | < 1e-05
G29U G41C | < 1e-05 | < 1e-05 |  |  | 
G38A G40C | < 1e-05 | < 1e-05 | < 1e-05 |  | < 1e-05
G32C U46A U49A | < 1e-05 |  |  |  | < 1e-05

Variant | self-cleavage kobs at 40 uM GlcN6P [1] [s⁻¹] | self-cleavage kobs at 160 uM GlcN6P [2] [s⁻¹] | self-cleavage kobs at 640 uM GlcN6P [3] [s⁻¹] | self-cleavage kobs at 2500 uM GlcN6P [4] [s⁻¹] | self-cleavage kobs at 10000 uM GlcN6P [5] [s⁻¹]
G29A U31C G43U | < 1e-05 |  | < 1e-05 |  | < 1e-05
A15U G44C | < 1e-05 |  |  |  | 
G29U A33G U65G | < 1e-05 |  |  |  | < 1e-05
C34G G60C | < 1e-05 | < 1e-05 | < 1e-05 | < 1e-05 | < 1e-05
C19A G40C | 7.99e-05 ± 1.9e-05 | 0.000173 ± 5.2e-05 | 0.000434 ± 0.00012 | 0.00156 ± 0.00041 | 0.00113 ± 0.00023
A36C C61G | < 1e-05 |  |  | < 1e-05 | 
A36G U65A | < 1e-05 | < 1e-05 | < 1e-05 | < 1e-05 | < 1e-05
G29U U49G | < 1e-05 |  |  | 3.79e-05 ± 1.7e-05 | 8.25e-05 ± 1.9e-05
G29C G40U G41U A52U | < 1e-05 |  |  |  | < 1e-05
G35U A36C G44U U55A | < 1e-05 |  |  |  | 
U30C G40C | < 1e-05 |  |  |  | 
A33U G37U U69A | < 1e-05 |  |  |  | 
A36G G62U | < 1e-05 |  | < 1e-05 | < 1e-05 | < 1e-05
G29U A52C C71U | < 1e-05 | < 1e-05 | < 1e-05 |  | < 1e-05
A15G C61U | < 1e-05 |  |  |  | 
G29C A42G A53C C68A | < 1e-05 |  |  |  | 
A36C A39G | < 1e-05 | < 1e-05 | < 1e-05 | < 1e-05 | < 1e-05
C16A G51C G60A | < 1e-05 |  | < 1e-05 |  | 
A14U U57G | < 1e-05 |  |  |  | 
U30A A39U | 0.000191 ± 5.4e-05 | 0.000401 ± 8.1e-05 | 0.00188 ± 0.00036 | 0.0022 ± 0.00046 | 0.00745 ± 0.0016
A15U G32U A33U | < 1e-05 |  |  |  | 
A15U U30C G51C | < 1e-05 |  |  |  | 
A33G A39U U54A | < 1e-05 |  |  |  | < 1e-05
G38A A53U | < 1e-05 |  | < 1e-05 |  | 
A33G U55G | < 1e-05 | < 1e-05 |  | < 1e-05 | < 1e-05

Variant | self-cleavage kobs at 40 uM GlcN6P [1] [s⁻¹] | self-cleavage kobs at 160 uM GlcN6P [2] [s⁻¹] | self-cleavage kobs at 640 uM GlcN6P [3] [s⁻¹] | self-cleavage kobs at 2500 uM GlcN6P [4] [s⁻¹] | self-cleavage kobs at 10000 uM GlcN6P [5] [s⁻¹]
U31C A52C | < 1e-05 | < 1e-05 |  | < 1e-05 | < 1e-05
G29C A33G G38A G40C G43C | < 1e-05 |  |  |  | 
U30G G38A | < 1e-05 | < 1e-05 | < 1e-05 | < 1e-05 | < 1e-05
A36C U45G U69G | < 1e-05 |  |  | < 1e-05 | 
C16A A36C | < 1e-05 |  |  |  | < 1e-05
C16U C34U | < 1e-05 | < 1e-05 |  |  | < 1e-05
G35C C68A C71U | < 1e-05 |  | < 1e-05 | < 1e-05 | < 1e-05
G35U C68G | 0.000484 ± 0.00019 |  |  |  | 
U31C A48U U69A | < 1e-05 |  | < 1e-05 |  | < 1e-05
A14U G41A G66C U69G | < 1e-05 |  |  | < 1e-05 | 
A15U G40A C50G C68A | < 1e-05 |  |  |  | < 1e-05
U31G U54A | 0.000582 ± 0.00015 |  |  |  | 
G29A G43U | < 1e-05 |  | < 1e-05 | < 1e-05 | < 1e-05
G29A G43A | < 1e-05 | < 1e-05 | < 1e-05 | < 1e-05 | 
C16U G29C G37A G44A | < 1e-05 |  |  |  | 
U30C G43C C61A | < 1e-05 |  |  |  | < 1e-05
A33G A36G U45G A53G | < 1e-05 |  |  | < 1e-05 | < 1e-05
G35U U55A C58A | < 1e-05 | < 1e-05 | < 1e-05 | < 1e-05 | 
U31G G63A | < 1e-05 | < 1e-05 | < 1e-05 | < 1e-05 | < 1e-05
G29U G35C | < 1e-05 | < 1e-05 | < 1e-05 | < 1e-05 | < 1e-05
A33C C67A | < 1e-05 |  |  | < 1e-05 | 
A15C G37U A53C G59U | < 1e-05 |  |  |  | 
G32U G41C | < 1e-05 | < 1e-05 |  |  | 
G35U G60C A64U | < 1e-05 |  |  |  | 
